# Measured values as given in ChEMBL document CHEMBL1157539, “Thousands of chemical starting points for antimalarial lead identification” (Nature, 2010).
# The full ranking holds about 13,000 compounds; the median of “IFI” is about 4, and the highest 2% start at about 17. The list shows a part of the results.
# Assay: GSK_TCMDC: Inhibition Frequency Index (IFI). The number of non-kinase HTS assays where a compound showed > 50 % inhibition, expressed as a percentage of the number of such assays in which the compound was tested (-0 is zero)
# Type: functional
row,Structure (SMILES),IFI [%]
1,O=C(c1cc(-c2ccco2)n[nH]1)N1CCN(S(=O)(=O)c2ccc(Cl)cc2)CC1,6.98
2,Nc1cc(-c2cccc(Cl)c2)nn1-c1ccnc2cc(Cl)ccc12,0
3,Cc1c(C)c2c(c(C)c1O)CC[C@@](C)(C(=O)N1CCC(CCN3CCC(c4c[nH]c5ccccc45)CC3)CC1)O2,5.19
4,O=C(Cc1c[nH]cn1)Nc1cccc(-c2ccc(-c3nc4cc(F)ccc4[nH]3)cc2)c1,3.7
5,CN1CCC(Oc2cc(NC(=O)Nc3ccc(-c4ccncc4)c(Cl)c3)ccc2Cl)CC1,7.58
6,COc1cc(-c2ccccc2)ccc1C(=O)Nc1ccc2c(c1)N(C)CCC2,4.9
7,CC(=O)Nc1ccc(CN(Cc2cccc(OC(C)(C)C)c2)Cc2ccc3c(c2)OCCO3)cc1,3.13
8,COc1c(Br)cc(Br)cc1-c1ccc(CN2CC3CCC2CC3)[nH]1,21.1
9,Cc1cccc(NC(=O)NC2CCN(CCCCCNC(=O)/C=C/c3ccc(Cl)c(Cl)c3)CC2)c1,4.67
10,CCOc1cc2ncnc(Nc3ccc(OCc4c(F)cccc4F)c(OC)c3)c2cc1OCC,0
11,Cc1[nH]c(C)c(-c2ccc(Oc3cccc(Cl)c3)cc2)c(=O)c1Cl,12.8
12,CCOc1cc(CC)ccc1C1CCN(CCN2CCC(CNC(=O)c3ccc(-c4ccc(C#N)cc4)cc3)CC2)CC1,10.1
13,CCCC(C)Nc1nc(C)cc(N[C@@H](CC(C)C)C(=O)NCCOc2ccccc2)n1 (some centres undefined),4.65
14,CC(C)(C)Oc1ccc(C[C@@H]2NC3(C(=O)N(Cc4ccc(Cl)c(Cl)c4)c4ccccc43)C3C(=O)N(c4ccc(Br)cc4)C(=O)C32)cc1 (some centres undefined),0
15,COc1cccc(-c2cnc(N)c(-c3nc4ccc(F)cc4[nH]3)c2)c1,9.17
16,COc1ccccc1CCNC(=O)c1cnc(N2CCN(c3ccncc3)CC2)c(Cl)c1,10.4
17,O=C(/C=C/c1cccc(C(F)(F)F)c1)NCCCCCN1CCN(C(=O)Nc2ccc(Cl)c(Cl)c2)CC1,6.16
18,CN(C)C(=O)n1cnc(S(=O)(=O)N(C)c2ccc(Cl)cc2)n1,3.57
19,CCc1cc2c3c(N)nc(N)nc3ccc2n1C(CC)CC,7.63
20,Cc1ccc(NC(=O)c2ccc(Cl)c(Cl)c2)cc1-c1ccc(C(=O)Nc2ccncc2)cc1,8.82
21,Clc1ccc(-c2nc3cc(-c4ccc5nc(-c6ccc(Cl)cc6)[nH]c5c4)ccc3[nH]2)cc1,2.22
22,CCN(CC)CCCC(C)Nc1ccnc2ccc(OC)cc12 (centres undefined),0.73
23,COc1ccc(NC(=O)c2ccc(-c3cc(NC(=O)c4ccnc(N5CCCC5)c4)ccc3C)s2)cc1N1CCN(C)CC1,5.79

row,Structure (SMILES),IFI [%]
1,CCOc1cc(C(=O)Nc2ccc3nc(N4CCCCC4)cc(C)c3c2)cc(OCC)c1OCC,3.23
2,CO/C(=C\C=C\c1cc2cc(Cl)c(Cl)cc2[nH]1)C(=O)NCCCN1CCN(c2cccc(OCC(=O)Nc3cccc(C(=O)c4ccccc4)c3)c2)CC1,6.15
3,c1nc2nc3c(c(Nc4ccc5c(c4)CCC5)n2n1)CCC3,0.74
4,CC(C)Nc1cc(C(=O)N[C@@H](Cc2ccccc2)[C@H](O)CNCc2cccc(C(F)(F)F)c2)c(F)c(N2CCCCS2(=O)=O)c1,5.22
5,COc1ccc(-c2ccc(NC(=O)c3ccc(Cl)cc3)cc2)cc1CN(C)CCO,4.95
6,CS(=O)(=O)c1ccccc1CNC(=O)c1ccc(-c2cccc(-c3nc4cc(C(F)(F)F)ccc4[nH]3)c2)cc1,3.81
7,Cc1ccc(C(=O)Nc2ccc(OC3CCN(CCC(C)C)C3)c(Cl)c2)cc1 (centres undefined),10.8
8,COc1ccc(NC(=O)c2ccc(Br)c(C)c2)cc1N1CCN(CCCCc2ccccc2)CC1,6.3
9,COc1ccc2ncc(F)c(CCN3CC[C@H](NCc4cc(C#N)c5c(c4)OCCO5)[C@H](O)C3)c2c1,3.74
10,COCCn1c(Sc2ncnc3sccc23)nc2ccccc21,0
11,COCCCN=C(S)NN=C(C)c1ccccn1,4.29
12,N#Cc1ccc2c(c1)CCN(CCC1CCC(NC(=O)/C=C/c3nc4ccccc4s3)CC1)CC2 (centres undefined),0
13,CC(C)(C)c1cc(C(=O)N2CCN(c3ccc(C(F)(F)F)cn3)CC2)n(Cc2ccc(F)cc2)n1,1.99
14,CC(=O)Nc1cc(C(=O)Nc2cccc(-c3csc(-c4nc5ccccc5[nH]4)c3)c2)ccc1C,3.64
15,CC(Sc1nc2sccc2c(=O)n1C)C(=O)Nc1ccc2c(c1)OCO2 (centres undefined),-0
16,O=c1nc(NCCCCCN2CCC(c3c[nH]c4ccccc34)CC2)[nH]cc1Cc1ccc(Cl)c(Cl)c1,5.04
17,COC1CCC(C(=O)Nc2ccc(-c3cccc(-c4nc5cc(C(F)(F)F)ccc5[nH]4)c3)cc2)CC1 (centres undefined),6.25
18,CC(=NNC(S)=NCc1ccco1)c1ccccn1,9.17
19,CC(C)Cn1c(Sc2ccc(C#N)c([N+](=O)[O-])c2)nnc1-c1ccc(N(C)C)cc1,2.86
20,CCCCCCCCNc1c2ccc(Cl)cc2nc2ccc(OC)cc12,3.7
21,CCNc1cc(C(=O)N[C@@H](Cc2ccccc2)[C@H](O)CNCCCc2ccc(OC)cc2)cc(N2CCCC2=O)c1,2.9
22,COc1ccc(CNc2ccc3nc(N)nc(N)c3c2)cc1,3.85
23,CC(C)C[C@H](NC(=O)c1cc2ccccc2s1)C(=O)N[C@H]1CCN(Cc2ccc(OCCCN(C)C)c(Cl)c2)C1,17.2

row,Structure (SMILES),IFI [%]
1,O=C(NCc1ccc(C(=O)NC2CCCCCC2)cc1)c1ccc(O)c(-c2ccc(Cl)c(Cl)c2)c1,0.74
2,Cc1noc(C)c1-c1ccc2c(Nc3nccc4ccccc34)c(C(N)=O)cnc2c1,16.2
3,COc1ccc(N2CCN(CCCCNC(=O)c3ccc(NC(=O)c4cc(C(F)(F)F)cc(C(F)(F)F)c4)cc3)CC2)c(OC)c1,3.54
4,CCc1sc(N2CCN(C)CC2)nc1C(=O)Nc1ccc(F)cc1C(F)(F)F,3.85
5,O=C(NCCN1CCCc2ccccc21)C1CCN(c2nc(-c3ccc(Cl)cc3)no2)CC1,3.03
6,O=c1[nH]c2c(cc1CNC1CCCCC1)c(-c1cccc(F)c1)nn2-c1ccccc1,6.41
7,COc1ccc(NC(=O)N2CCN(CCCCCNC(=O)/C=C/c3ccc(C(F)(F)F)cc3)CC2)cc1Cl,7.92
8,CC(CN1CCN(C)CC1)C(=O)Nc1ccc(-c2ccc(-c3nc4cc(C(F)(F)F)ccc4[nH]3)cc2)cc1 (centres undefined),6.36
9,C=CCn1c(Sc2ccc(C#N)c([N+](=O)[O-])c2)nnc1-c1ccc(Cl)cc1,4.23
10,O=C(Nc1cc2cc(-c3ccc(CN4CCCCC4)cc3)ccc2n2cnnc12)NC1CCCC1,16.2
11,CC(C)(CN)c1cc(-c2ccc(Cl)c(O)c2)c(-c2ccncc2)o1,3.57
12,O=C(/C=C/c1ccc(Cl)c(Cl)c1)NCCCCCN1CCC(NC(=O)NC2CCCC2)CC1,0.66
13,FC(F)(F)c1cccc(CCNc2nccc(NCc3ccc(Cl)cc3Cl)n2)c1,25
14,O=c1cc(NCCCNCc2cc3c(Cl)cccc3s2)[nH]c2ccccc12,5.22
15,COc1ccc2nccc(N3C[C@H]4C[C@@H]3CN4CCNCc3ccc4c(n3)NC(=O)CS4)c2n1,3.03
16,Cc1[nH]c(C)c(-c2ccc(OCc3cc(F)cc(F)c3)nc2)c(=O)c1Br,7.89
17,Cc1ccc(N2CCc3c(-c4cc5cccnc5nc4C)cc(C)nc32)c(Cl)c1,7.69
18,COc1ccc(OC)c(-c2ccc(=O)n(CC(=O)Nc3cccc4ccccc34)n2)c1,1.52
19,O=C(CCNc1ccnc(NCCc2ccccc2)n1)Nc1ccccc1,15.8
20,Cc1cccc(CNc2ncc(C)c(NCCC(=O)Nc3ccccc3)n2)c1,0
21,c1cc(CNC2Cc3ccc(-c4cccs4)cc3C2)cc(-n2ccnc2)c1 (centres undefined),7.69
22,CCOc1ccc2[nH]c(C)cc(=NN=Cc3cccc(F)c3)c2c1,0.76
23,COc1ccc(-c2cccc(NC(=O)c3cccc(C#N)c3)c2)cc1CNC(C)C,1.98

row,Structure (SMILES),IFI [%]
1,CC1(C)NC(N)=NC(=N)N1OCCCc1c(Cl)cccc1Cl,7.46
2,COC(=O)c1ccc(NC(=O)c2ccc(CCN3CCC(c4nc(COCC(F)(F)F)c(-c5ccc(F)cc5)o4)CC3)cc2)cc1,-0
3,O=C(NOCCCCOc1ccc(Cl)c(Cl)c1)c1ccccc1,2.82
4,Cc1ccn2c(N(Cc3ccccc3)C(=O)c3ccc(Cl)c(Cl)c3)c(-c3ccccc3)nc2c1,8.05
5,Cc1cccc2nc(-c3ccc(-c4cccc(NC(=O)NCc5cccc(F)c5)c4)s3)[nH]c12,2.02
6,CC(=O)Nc1ncc(C(=O)Nc2cccc(-c3cccc(-c4nc5cccc(C)c5[nH]4)c3)c2)s1,2.78
7,Cc1ccc(-c2cncc(-c3cc(NC4CCN(Cc5ccccc5)CC4)nc(-c4ccccc4)n3)c2)cc1,4.35
8,Cc1ccc(C(=O)Nc2cc(C(F)(F)F)cc(C(F)(F)F)c2)cc1[N+](=O)[O-],0
9,CCCCCCOc1ccc(C(=O)N[C@H]2CCN(CCCCCNC(=O)/C=C/c3ccc(Cl)c(Cl)c3)C2)cc1,4.58
10,O=C(Nc1cccc(CN2CCCN(Cc3ccc(O)cc3)CC2)c1)c1ccc(-c2ccccc2)cc1,9.46
11,O=C(Nc1ccc(Cl)cc1)c1cccc(S(=O)(=O)NC2CCN(CC3CCCCC3)CC2)c1,8.74
12,Nc1cc(/C=C/c2ccc([N+](=O)[O-])s2)nc2ccccc12,19.2
13,CCC(C)NCC(O)(c1ccc(Cl)cc1)c1ccc(Cl)cc1 (centres undefined),2.78
14,Clc1ccc(CNCCCCCCNCc2ccc(Cl)cc2)cc1,11.3
15,CN(C)CCC(O)C=C(c1ccc(Cl)cc1)c1ccc(Cl)cc1 (centres undefined),4.69
16,Cc1ccc2ccncc2c1N,5.93
17,O=C(NCCCCN1CCCC2c3cccc(O)c3CCC21)c1ccc(-c2ccccc2)cc1 (centres undefined),4.48
18,O=C(Nc1cccc(-c2cccc(-c3nc4ccccc4[nH]3)c2)c1)c1cccnc1,7.34
19,C=CCOc1ccc(CNC2CCN(Cc3ccccc3)CC2)cc1Br,5.88
20,O=C(NCc1cccc(F)c1)Nc1ccc(-c2cccc(-c3nc4cc(F)ccc4[nH]3)c2)cc1,4.95
